Screen size: about 39,000 compounds; about 220 (0.56%) showed activity. Some of the results follow.
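Note: static incubation at 37 °C against the wild-type strain, values averaged over two biological replicates.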

In the test the test system is Escherichia coli K-12 BW25113. Kind of test: relative growth (OD600 normalised to plate interquartile mean) (fraction); higher = less growth inhibition, active = 0.2 or less. Particulars: 50 µM; LB; incubation time: overnight (16-24 h).
Turning to `CN(CC(=O)NC1CCCCC1)S(C)(=O)=O`, the relative growth was inactive: 0.998.

As to `CN1C(=O)c2cc(NC(=O)c3cnccn3)ccc2OC[C@@H]2O[C@@H](CC(=O)NCC3CCCCC3)CC[C@H]21`, the relative growth was inactive: 1.

Take `C[C@@H]1CN([C@@H](C)CO)C(=O)c2cc(NS(=O)(=O)c3cn(C)cn3)ccc2O[C@@H]1CN(C)S(=O)(=O)c1ccc(Cl)cc1`: the relative growth was inactive: 0.982.

As to `CCCN(C)C[C@H]1OCCCC[C@@H](C)Oc2ccc(NC(=O)Nc3ccccc3)cc2C(=O)N([C@@H](C)CO)C[C@H]1C`, the relative growth is inactive: 0.964.

With `C[C@H]1c2cccc(O)c2C(=O)C2=C(O)[C@]3(O)C(=O)[C@@H](C(N)=O)C(=O)[C@@H](N(C)C)[C@@H]3[C@@H](O)[C@@H]21`, the relative growth was active: 0.0376.

Turning to `COc1cc(C2c3cc4c(cc3C(OC3OC5COC(C)OC5C(O)C3O)C3COC(=O)C23)OCO4)cc(OC)c1O` (configuration not stated), the relative growth is inactive: 1.02.

For `CO[C@@H]1CN(C)C(=O)c2ccc(NC(=O)Nc3ccccc3F)cc2OC[C@@H](C)N(Cc2ccccc2F)C[C@H]1C`, the relative growth is inactive: 1.01.

Consider `COc1cnc(NS(=O)(=O)c2ccc(N)cc2)nc1`, for which the relative growth was inactive: 1.14.

As for `OC[C@H]1COCc2cnnn21`, the relative growth is inactive: 1.01.

Regarding `C[C@H]1CN([C@@H](C)CO)S(=O)(=O)c2ccc(C#CC3CCCC3)cc2O[C@H]1CN(C)C(=O)Cc1ccncc1`, the relative growth was inactive: 0.981.

As to `COc1ccc(NC(=O)Nc2ccc3c(c2)C(=O)N([C@H](C)CO)C[C@@H](C)[C@@H](CN(C)Cc2ccc4c(c2)OCO4)OCCCC[C@H](C)O3)cc1`, the relative growth was inactive: 0.934.

On to `C[C@@H]1CN([C@@H](C)CO)C(=O)Cc2cc(NC(=O)Nc3cccc4ccccc34)ccc2O[C@H]1CN(C)S(=O)(=O)c1ccc(Cl)cc1`, for which the relative growth is inactive: 1.02.

For the molecule `C[C@H]1CN([C@@H](C)CO)C(=O)c2cc(C#CC3(O)CCCC3)cnc2O[C@@H]1CN(C)S(=O)(=O)c1ccc(F)cc1`, the relative growth was inactive: 1.02.

For `COc1ccc(NC(=O)N(C)C[C@@H]2OCCCC[C@H](C)Oc3ccc(NC(=O)Cc4ccccc4)cc3C(=O)N([C@@H](C)CO)C[C@@H]2C)cc1`, the relative growth is inactive: 0.983.

Take `COc1ccc(NC(=O)Nc2ccc3c(c2)CC(=O)N([C@H](C)CO)C[C@@H](C)[C@H](CN(C)S(=O)(=O)c2cn(C)cn2)O3)cc1`: the relative growth was inactive: 0.987.

For `COc1ccc(S(=O)(=O)N(C)C[C@@H]2OCCCC[C@@H](C)Oc3ccc(NC(=O)NC4CCCCC4)cc3C(=O)N([C@@H](C)CO)C[C@H]2C)cc1`, the relative growth is inactive: 0.999.

On to `O=C(O)CCC(=O)Nc1ccc(S(=O)(=O)Nc2nccs2)cc1`, for which the relative growth is inactive: 1.1.

Turning to `Cc1noc(C)c1NC(=O)N(C)C[C@H]1Oc2ccc(NS(=O)(=O)c3c(C)noc3C)cc2C(=O)N([C@@H](C)CO)C[C@@H]1C`, the relative growth was inactive: 1.01.

Take `C[C@H]1CCCCO[C@@H](CN(C)C(=O)Nc2ccc(C(F)(F)F)cc2)[C@@H](C)CN([C@@H](C)CO)C(=O)c2cc(N(C)C)ccc2O1`: the relative growth is inactive: 1.02.

On to `CCS(=O)(=O)N1Cc2cc(C(=O)NCCOC)nc(-c3cccc(-c4ccncc4)c3)c2[C@@H]1CCO`, for which the relative growth is inactive: 0.98.

Take `Cc1noc(C)c1S(=O)(=O)N(C)C[C@@H]1Oc2ccc(NC(=O)CCC(F)(F)F)cc2CC(=O)N([C@@H](C)CO)C[C@@H]1C`: the relative growth is inactive: 1.01.

Turning to `C[C@@H]1CN([C@H](C)CO)C(=O)c2cc(C#CC3(O)CCCC3)cnc2O[C@@H]1CN(C)C(=O)Cc1ccncc1`, the relative growth is inactive: 0.987.

For the molecule `CCCC[C@H](NC(C)=O)C(=O)N[C@@H](CCC(N)=O)C(=O)N[C@@H](Cc1c[nH]cn1)C(=O)N[C@H](Cc1ccccc1)C(=O)N[C@@H](CCCNC(=N)N)C(=O)N[C@H](Cc1c[nH]c2ccccc12)C(=O)NCC(N)=O`, the relative growth is inactive: 1.03.

Turning to `Cc1ccc(S(=O)(=O)Nc2ccc3c(c2)C(=O)N([C@H](C)CO)C[C@H](C)[C@@H](CN(C)Cc2ccc(C(=O)O)cc2)OCCCC[C@@H](C)O3)cc1`, the relative growth was inactive: 0.993.

On to `Cc1noc(C)c1NC(=O)N(C)C[C@H]1Oc2ccc(NC(=O)Cn3cnnn3)cc2C(=O)N([C@H](C)CO)C[C@H]1C`, for which the relative growth was inactive: 0.967.

Consider `COc1ccc(CN(C)C[C@@H]2Oc3c(NC(=O)CCCCCC(=O)Nc4ccccc4N)cccc3C(=O)N([C@@H](C)CO)C[C@H]2C)cc1`, for which the relative growth was inactive: 0.993.

On to `C[C@@H]1CN([C@@H](C)CO)S(=O)(=O)c2ccc(C#CCN(C)C)cc2O[C@@H]1CN(C)S(=O)(=O)c1cccc(F)c1`, for which the relative growth was inactive: 1.03.

As for `Cc1cc(C2CCCCC2)n(O)c(=O)c1.NCCO`, the relative growth was active: 0.0534.

For the molecule `C[C@@H]1CN([C@@H](C)CO)C(=O)Cc2cc(NC(=O)Nc3ccc(C(F)(F)F)cc3)ccc2O[C@H]1CN(C)Cc1ccc(Oc2ccccc2)cc1`, the relative growth was inactive: 1.02.

Consider `C[C@@H]1CN([C@@H](C)CO)C(=O)c2cccc(NC(=O)Nc3ccc4c(c3)OCO4)c2O[C@H]1CN(C)C(=O)Nc1cccc2ccccc12`, for which the relative growth is inactive: 1.

As for `COc1ccc(NC(=O)Nc2ccc3c(c2)C(=O)N([C@H](C)CO)C[C@H](C)[C@H](CN(C)C(=O)Nc2ccccc2)OCCCC[C@@H](C)O3)cc1`, the relative growth was inactive: 1.02.

Regarding `C[C@@H]1CN([C@H](C)CO)C(=O)c2cc(NC(=O)CCC(F)(F)F)ccc2O[C@@H](C)CCCCO[C@@H]1CN(C)Cc1ccc2c(c1)OCO2`, the relative growth was inactive: 1.01.

In the case of `CC(=O)N1CCN(C(=O)c2ccc(NCc3ccccc3Cl)c(S(=O)(=O)Nc3cccc(C(F)(F)F)c3)c2)CC1`, the relative growth was inactive: 0.981.

In the case of `O=C(O)c1ccnc2nc[nH]c12`, the relative growth is inactive: 0.997.

With `COc1ccc2c3c(n(c2c1)C)[C@@H](CO)N(Cc1ccccc1)C[C@]13CCN(CC1)C(=O)c1ccccc1F`, the relative growth is inactive: 1.03.

Consider `NC[C@H]1O[C@H](O[C@H]2[C@H](O)[C@@H](O[C@H]3O[C@H](CO)[C@@H](O)[C@H](N)[C@H]3O)[C@H](N)C[C@@H]2N)[C@H](N)C[C@@H]1O`, for which the relative growth was active: 0.0393.

Take `C[C@H](CO)N1C[C@H](C)[C@H](CN(C)S(=O)(=O)c2ccc(Oc3ccccc3)cc2)OCc2cnnn2CCCC1=O`: the relative growth is inactive: 1.04.

Source of the values: the supplement of paper PMC9446081.
